Measurements from PubChem BioAssay AID1347165 (National Center for Advancing Translational Sciences (NCATS), 2019).
Several values for one entry are separate records, joined by “and”; a condition that tells them apart may be missing. Equal values may be shown once. In all, about 220,000 compounds went through this assay and about 5,700 (2.6%) were called active. Inconclusive means that the source gave no clear call. Such entries were picked first, then a sample of the others. The call rests on the fitted dose curve; in most records, active means well fitted inhibition curve with a large enough effect; inconclusive means small, poorly fitted or top-dose-only effect; inactive means no such curve, though single readings can be large or run the other way. Potencies beside an inconclusive call are fits to weak or partial responses and may not hold up.

Biological target: Lysine-specific demethylase 5B (Homo sapiens) (UniProt Q9UGL1)
Chain of UniProt Q9UGL1 (Q9UGL1 whole entry, looked up): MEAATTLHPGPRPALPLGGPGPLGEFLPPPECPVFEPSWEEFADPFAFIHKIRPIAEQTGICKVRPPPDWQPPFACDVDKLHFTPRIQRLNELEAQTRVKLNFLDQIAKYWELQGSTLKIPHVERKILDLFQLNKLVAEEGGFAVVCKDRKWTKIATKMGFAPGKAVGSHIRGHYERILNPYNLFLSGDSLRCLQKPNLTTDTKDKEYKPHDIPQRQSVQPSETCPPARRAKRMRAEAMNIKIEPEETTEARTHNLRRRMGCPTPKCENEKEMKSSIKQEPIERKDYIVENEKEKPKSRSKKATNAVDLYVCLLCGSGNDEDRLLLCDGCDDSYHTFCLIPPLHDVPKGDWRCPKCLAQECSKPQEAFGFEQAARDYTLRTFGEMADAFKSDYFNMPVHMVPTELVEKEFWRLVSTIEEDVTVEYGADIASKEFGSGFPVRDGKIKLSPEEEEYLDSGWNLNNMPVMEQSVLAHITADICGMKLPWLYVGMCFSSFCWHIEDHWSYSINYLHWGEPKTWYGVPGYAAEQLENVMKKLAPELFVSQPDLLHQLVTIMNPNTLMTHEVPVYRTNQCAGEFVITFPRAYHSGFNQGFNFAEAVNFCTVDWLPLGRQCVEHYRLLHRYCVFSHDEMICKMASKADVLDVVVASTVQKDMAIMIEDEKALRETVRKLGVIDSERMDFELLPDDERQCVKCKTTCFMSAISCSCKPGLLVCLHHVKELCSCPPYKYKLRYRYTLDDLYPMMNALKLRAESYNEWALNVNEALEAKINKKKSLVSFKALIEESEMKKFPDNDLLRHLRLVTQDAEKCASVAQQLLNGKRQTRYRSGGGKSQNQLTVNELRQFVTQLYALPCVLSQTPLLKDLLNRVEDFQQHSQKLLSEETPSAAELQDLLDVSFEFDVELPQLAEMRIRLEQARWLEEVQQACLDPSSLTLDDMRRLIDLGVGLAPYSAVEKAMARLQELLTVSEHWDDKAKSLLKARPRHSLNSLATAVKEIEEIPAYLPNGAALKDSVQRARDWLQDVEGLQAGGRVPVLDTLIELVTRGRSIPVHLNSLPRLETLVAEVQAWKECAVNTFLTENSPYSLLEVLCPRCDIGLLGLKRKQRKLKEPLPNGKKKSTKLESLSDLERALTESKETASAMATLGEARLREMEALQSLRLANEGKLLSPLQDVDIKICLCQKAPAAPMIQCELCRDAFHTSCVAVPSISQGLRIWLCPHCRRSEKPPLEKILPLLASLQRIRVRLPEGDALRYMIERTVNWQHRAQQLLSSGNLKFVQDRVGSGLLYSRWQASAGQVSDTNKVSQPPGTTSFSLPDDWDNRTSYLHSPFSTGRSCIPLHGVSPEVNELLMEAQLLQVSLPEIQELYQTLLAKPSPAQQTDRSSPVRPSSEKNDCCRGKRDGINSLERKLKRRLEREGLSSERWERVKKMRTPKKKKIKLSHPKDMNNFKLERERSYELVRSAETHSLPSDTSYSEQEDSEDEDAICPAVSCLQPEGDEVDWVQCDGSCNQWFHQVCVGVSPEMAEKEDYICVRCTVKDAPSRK
Assay: Primary screen for KDM5B Histone Demethylases FDH-coupled qHTS; further: nearly all actives have a fitted effect of over 70% in size; on activity change, negative = inhibition: 0% is about no effect
Settings: FDH-coupled NADH fluorescence (FDH is formaldehyde dehydrogenase); activity change, negative = inhibition: at 57.7 µM (top of the series) unless noted
Summary of the method: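 qHTS format, multiple compound concentrations. Buffer 50 mM HEPES pH 7.5/0.01% Tween-20; 200 nM KDM5BΔAP final; 10 min compound preincubation; substrate-mix levels 12.5 µM peptide, 25 µM α-KG, 0.25 mM NAD⁺; 30 min RT; ΔRFU.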
Potency means the concentration at half of the fitted maximal effect; tags describe the fitted curve by direction and shape.

| SMILES | Potency | activity change, negative = inhibition |
| --- | --- | --- |
| CCOc1ccccc1NC(=O)c1c(NC(=O)c2ccncc2)sc2c1CCC(C(C)(C)C)C2 (configuration not stated) | inconclusive: 15.8 µM [inhibitor, partial curve, poor fit] |  |
| Cc1ccc(Cn2c(C)c3cnn(CC(=O)N4CCN(c5ccc(F)cc5)CC4)c(=O)c3c2C)cc1 | inconclusive: 25.1 µM [inhibitor, partial curve, poor fit] |  |
| CCCN(CC1CC1)C(=O)C1CCCN(Cc2ccncc2)CCC(=O)NCC1 (configuration not stated) | inconclusive: 35.5 µM [inhibitor, single point] |  |
| COc1ccc2cnn(CC(=O)Nc3ccc(Oc4ccccc4)cc3)c(=O)c2c1OC | inactive |  |
| COc1ccccc1CCN1CCCC(CN(C)C(=O)c2cc(C)n(C)c2C)C1 (configuration not stated) | inconclusive: 25.1 µM [inhibitor, single point] |  |
| COc1ccc(Cl)cc1NC(=O)Cn1ccn2nc(-c3ccc(F)cc3)c(CO)c2c1=O | inconclusive: 25.1 µM [inhibitor, single point] |  |
| COCCCNc1oc(-c2cccc(C)c2)nc1C#N | inconclusive: 20 µM [inhibitor, partial curve, poor fit] |  |
| CNC(=O)c1cccc2c(C)nnn12 | active: 31.6 µM |  |
| CC1Cn2cc(C(=O)Nc3ccccc3C(F)(F)F)c(=O)c3c(Cl)ccc(c32)O1 (configuration not stated) | inconclusive: 28.2 µM [inhibitor, partial curve, poor fit] |  |
| O=C(NCCN1CCCCC1)C1CCCC1 | inconclusive: 31.6 µM [inhibitor, single point] |  |
| CC(C)Oc1ccc(C(=O)Nc2nc3c(s2)CC(C(C)(C)C)CC3)cc1 (configuration not stated) |  | inconclusive: -39.1% [inhibitor] |
| CCN1c2cc(C(=O)Nc3cccc(Br)c3)ccc2C(=O)N2CCCCC21 (configuration not stated) | inconclusive: 25.1 µM [inhibitor, partial curve, poor fit] |  |
| CCc1ccc(NC(=O)Nc2cccc(-c3nnc4n3CCCC4)c2)cc1 | inactive |  |
| O=C(O)c1cc(-c2ccccc2F)no1 | inactive |  |
| O=C(NCc1cc2n(n1)CCN(C1CCCCC1)C2)Nc1cccc(F)c1 | inconclusive: 15.8 µM [inhibitor, partial curve, poor fit] |  |
| O=S(=O)(NCC1(COc2cnccn2)C[C@@H](O)[C@@H](O)C1)c1ccc(F)cc1 (some centres not stated) | inconclusive: 39.8 µM [inhibitor, single point] |  |
| CS(=O)(=O)N1CCCN(C(=O)C2(c3ccccc3)CC2)c2ccccc21 | inactive |  |
| COc1ccc(-n2c(SCC(=O)Nc3ccc(NC(C)=O)cc3)nc3c([nH]c4ccccc43)c2=O)cc1OC | inconclusive: 39.8 µM [inhibitor, partial curve, poor fit] |  |
| O=C(c1ccc(F)c(Cl)c1)N1CCN(C(=O)c2nnn3c2COC(c2ccccc2)C3)CC1 (configuration not stated) | inactive |  |
| COc1ccc(CNC(=O)c2ccc3c(c2)N(Cc2ccccc2)CCS3)cc1 | inconclusive: 17.8 µM [inhibitor, partial curve, poor fit] |  |
| C[C@@H]1CN(C(=O)NCC2CCCCC2)CC[C@@]1(O)C1CCOCC1 | inconclusive: 12.6 µM [inhibitor, partial curve, poor fit] |  |
| CCN(CCO)C[C@@H]1CN(c2nccc(N)n2)C[C@@H]1CO | inconclusive: 17.8 µM [inhibitor, partial curve] |  |
| COc1ccc(NC(=S)Nn2cnnc2)c(OC)c1 | inconclusive: 25.1 µM [inhibitor, single point] |  |

| SMILES | Potency | activity change, negative = inhibition |
| --- | --- | --- |
| CSc1ccc(C=Nc2cccc(Cl)c2C)cc1 | inconclusive: 22.4 µM [inhibitor, partial curve, poor fit] |  |
| CCCNC(=O)C(C)Sc1nc(-c2ccco2)nc2ccccc12 (configuration not stated) | inconclusive: 10 µM [inhibitor, partial curve, poor fit] |  |
| COc1ccc(Nc2ncnc3c2nc2n3CCCC2)cc1Cl | inconclusive: 15.8 µM [inhibitor, partial curve, poor fit] |  |
| Cc1ccc2nc(C3CCCN(Cc4cccc(-c5cccs5)c4)C3)[nH]c(=O)c2c1 (configuration not stated) | inconclusive: 79.4 µM [inhibitor, partial curve] and inconclusive: 35.5 µM [inhibitor, single point] |  |
| N#Cc1c[nH]n2c(=O)cc(CSc3nnc(-c4ccccc4F)n3C3CC3)nc12 | inconclusive: 44.7 µM [inhibitor, partial curve, poor fit] |  |
| CCN(CC)CCn1c(C)c(C)c2c1ncn1nc(-c3cccs3)nc21 | inconclusive: 7.08 µM [inhibitor, full curve, poor fit] |  |
| Cc1cc(Nc2cccc(C(F)(F)F)c2)nc2ccc(NC(=O)c3cccnc3)cc12 | inconclusive: 15.8 µM [inhibitor, partial curve, poor fit] |  |
| N#Cc1ccccc1OC(=O)/C=C/c1ccco1 | inactive |  |
| COc1cccc(CNC(=O)c2cc3c(N4CCCC4)nc(C)cn3n2)c1 | inactive |  |
| CCOc1ccccc1NC(=O)c1cc2cc(OC)ccc2n1C | inactive |  |
| Cc1ccc2nc(C)cc(C(=O)N3CCC(c4cc(CC(=O)O)[nH]n4)CC3)c2c1 | inactive |  |
| Cc1ccccc1-c1nc(C#N)c(N2CCN(Cc3ccccc3)CC2)o1 | inconclusive: 12.6 µM [inhibitor, partial curve, poor fit] |  |
| COc1cc(/C=C/c2nc3cc(Cl)ccc3c(=O)n2-c2ccc(C)cc2C)cc(OC)c1OC | inconclusive: 28.2 µM [inhibitor, partial curve, poor fit] |  |
| Cc1cccc(-c2noc(CNC(=O)CN(C)S(=O)(=O)c3ccc4ccccc4c3)n2)c1 | inconclusive: 39.8 µM [inhibitor, single point] |  |
| O=C(O)c1c2c(nc3ccc(S(=O)(=O)N4CCC(C(=O)NCc5ccc(Cl)cc5)CC4)cc13)CCCC2 | inconclusive: 31.6 µM [inhibitor, partial curve, poor fit] |  |
| CCCCCOc1ccc(NC(=O)Cn2c(-c3cncs3)nc3ccccc32)cc1 | inconclusive: 28.2 µM [inhibitor, single point] |  |
| CCOC(=O)c1cnc2c(C(=O)OCC)cnn2c1N | inconclusive: 28.2 µM [inhibitor, single point] |  |
| Cc1cc(C)c(CNC(=O)c2cc(-c3cnn(C)c3)cc3c2OCCN3C(C)C)c(=O)[nH]1 | active: 28.2 µM |  |
| COc1ccc(NC(C)=O)cc1NC1CCOC1=O (configuration not stated) | inactive |  |
| CCCNC(=O)NC(=O)CNc1cccc(C)c1C(=O)OC | inconclusive: 39.8 µM [inhibitor, single point] |  |
| COCCn1c(SC(C)C(=O)c2cc(C)ccc2C)nnc1-c1ccc(Cl)cc1 (configuration not stated) | inactive |  |
| O=C1N(CC2CCC2)CCCC1(O)CNCC1CCCCC1 (configuration not stated) | inactive |  |
| CCc1ccc2oc(-c3cccc(NC(=O)c4cc(OC)c(OC)c(OC)c4)c3)nc2c1 | inconclusive: 39.8 µM [inhibitor, single point] |  |

| SMILES | Potency | activity change, negative = inhibition |
| --- | --- | --- |
| Cc1cc(C)cc(C(=O)NCc2nnc3c(-c4nc(C(C)C)no4)cccn23)c1 | active: 22.4 µM |  |
| CCOc1ccc(C2C(C(N)=O)=C(C)Nc3nc(-c4cccc(Cl)c4)nn32)cc1OC (configuration not stated) | inconclusive: 15.8 µM [inhibitor, partial curve, poor fit] |  |
| Cc1ccc(NC(=O)c2cc3n(n2)CC(c2ccc(Cl)cc2)OC3)c(Cl)c1 (configuration not stated) | active: 17.8 µM |  |
| COc1ccccc1-c1nc(C(=O)NC2CC2)n2ccncc12 | active: 35.5 µM |  |
| CC1CCCN(CCCCNC(=O)CCc2ccc(C#N)cc2)C1 (configuration not stated) | inactive |  |
| CS(=O)(=O)c1ccc(OCC2(CNCc3cccnc3)C[C@@H](O)[C@@H](O)C2)cc1 (some centres not stated) | inactive |  |
| CSc1cccc(NC(=O)c2cc3c(N4CCCC4)nc(C)cn3n2)c1 | inactive |  |
| Cc1ccc(CN(C)Cc2cnc(S(=O)(=O)C(C)C)n2CCc2ccccc2)o1 | inconclusive: 22.4 µM [inhibitor, partial curve] |  |
| CN(Cc1ccccc1)C(=O)c1ccc2c(c1)NC(C)(COc1ccccc1)CO2 (configuration not stated) | active: 39.8 µM |  |
| COc1ccccc1N1CCN([C@@H]2[C@H](O)[C@H](CO)O[C@@H]2CNCc2cccc(Cl)c2)CC1 | inconclusive: 22.4 µM [inhibitor, partial curve, poor fit] |  |
| COc1cc(F)ccc1-c1cc(C(=O)NCc2ccnc(N)c2)c2c(c1)ncn2C | active: 35.5 µM |  |
| Cc1nn(-c2ccc3nncn3n2)c2c1C(c1c(F)cccc1F)CC(=O)N2 (configuration not stated) | inactive |  |
| C[C@H]1[C@@H]2[C@@H](O)C([C@H](C)C(=O)NC3CC3)CC[C@@]2(C)CC[C@@H]1NC(=O)c1cnccn1 (some centres not stated) | inconclusive: 14.1 µM [inhibitor, partial curve] |  |
| Cc1cccc(NC(=O)N2CCN(C)c3ncccc32)c1C | inconclusive: 28.2 µM [inhibitor, partial curve, poor fit] |  |
| O=C(CCC(=O)c1ccc(F)cc1)OCc1cccc([N+](=O)[O-])c1 | inactive |  |
| Cc1cccc(CN2CCCCCNC(=O)CC2c2ccccc2)c1 (configuration not stated) | inactive |  |
| COc1ccccc1Nc1c(-c2ccc(O)cc2)nc2ncccn12 | inactive |  |
| Cc1nn(C)c2ncc(C(N)=O)c(Oc3cccnc3)c12 | inconclusive: 25.1 µM [inhibitor, single point] |  |
| N#Cc1cc(C(=O)c2cc(Cl)ccc2O)cn(C2CCCCC2)c1=O | inactive |  |
| CCCN(CCC)C(=O)Cn1c(SCc2cccc(C(F)(F)F)c2)nc2cccnc21 | inconclusive: 35.5 µM [inhibitor, partial curve, poor fit] |  |
| CN(c1ccccc1)S(=O)(=O)c1ccccc1C(=O)OCn1nnc2ccccc2c1=O | inactive |  |
